# About 60 (0.1%) of roughly 46,000 compounds were called active. About 3% were inconclusive and are not listed. Calls follow the shape of the dose curve; as a rule, active = well fitted inhibition curve with a large enough effect; inconclusive = small, poorly fitted or top-dose-only effect; inactive = no such curve, though single readings can be large or run the other way. This is one part of the list.
# Assay: Primary qHTS assay for Inhibitors of ovarian cancer metastasis using an organotypic tumor microenvironment (TME) model. Also: nearly all actives have a fitted effect of over 65% in size.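 As to activity change, negative = inhibition: plate controls were DMSO wells for no effect and tomatine positive control wells for full effect.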
# Conditions: SKOV3ip1-GFP adhesion/invasion on 3D omental model, fluorescence; series mostly up to 45.8 µM; activity change, negative = inhibition: at the top concentration
# How it was run: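 A 3D layer of primary human omental fibroblasts, mesothelial cells, fibronectin and collagen I, grown 48 hr, received SKOV3ip1-GFP cells in serum-free medium plus compounds at 0.36-46 umol/L. After 2 hr RT and 16 hr 37 C, fixed adherent GFP cells were counted; normalized to DMSO and tomatine.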
SMILES,"activity change, negative = inhibition",outcome
COc1ccc(CNC(=O)CCc2nc3cccnc3n2Cc2ccc(OC)cc2)cc1,inactive: -2.66%,
Cc1nn(CCCC(=O)NCCc2ccc(Cl)cc2)c(=O)c2nn(-c3ccccc3)c(C)c12,,inactive
O=C(NCc1cccc(Cl)c1)c1oc(=O)c2ccccc2c1-c1ccccc1,,inactive
COc1ccccc1CNS(=O)(=O)c1cc(-c2cc(C)no2)ccc1C,inactive: 19%,
Cc1ccc(NC(=O)Cn2c(=O)n(CCc3ccccc3)c(=O)c3sc4ccccc4c32)cc1C,,inactive
COC(=O)c1ccc(NC(=O)c2nn(C)c3c2COc2ccccc2-3)cc1,inactive: 2.29%,
CCOc1ccc(OCC(=O)NCCS(=O)(=O)N2CCN(c3ccc(OC)cc3)CC2)cc1,inactive: 3.22%,
Cc1ccc(-c2cc(NC(=O)COc3c(C)cc(C)cc3C)on2)cc1,inactive: 0.396%,
O=C(NCc1ccccc1F)c1cccc(NC(=O)N2CCSc3ncccc32)c1,inactive: 36.3%,
COc1ccc(C2CC(=O)c3cc(-c4nc(-c5cccc([N+](=O)[O-])c5)cs4)c(=O)n(-c4ccccc4C)c3C2)cc1 (stereo unspecified),,inactive
CC[C@H](C)C(=O)O[C@H]1C[C@@H](C)C=C2C=C[C@H](C)[C@H](CC[C@@H]3C[C@@H](O)CC(=O)O3)[C@H]21,inactive: -8.07%,
Cc1ccc(C)c(NC2=C(c3ccc(C(F)(F)F)cc3)C(=O)c3ccccc32)c1,inactive: 4.78%,
CCOCCc1nn2c(=O)cc(COC(=O)c3ccc(NC(=O)c4ccc(F)cc4)cc3)nc2s1,inactive: 0.987%,
CCc1ccc(C2CC(=O)N(c3cccc(C(F)(F)F)c3)C3=C2C(=O)OC3)cc1 (stereo unspecified),,inactive
COc1cc(NC(=O)Cn2c(=O)n(CC3CCCO3)c(=O)c3cc(OC)c(OC)cc32)cc(OC)c1 (stereo unspecified),,inactive
COc1ccccc1C(=O)NCCc1csc(-c2ccc(C(F)(F)F)cc2)n1,inactive: 4.28%,
COc1ccc2c(CNC3CCC(C)CC3)c(C(=O)O)n(Cc3ccccc3)c2c1 (stereo unspecified),inactive: 14.9%,
Clc1ccc(C(Cn2ccnc2)OCc2ccc(Sc3ccccc3)cc2)c(Cl)c1 (stereo unspecified),inactive: -6.88%,
CCCN1CCCc2cc(CN(CCCN3CCOCC3)C(=O)Nc3ccc(OCC)cc3)ccc21,inactive: 2.26%,
CC(=O)N1CCc2cc(CNC(=O)Nc3ccccc3C(F)(F)F)ccc21,inactive: -7.44%,
CCC(C(=O)Nc1cc(OC)ccc1OC)n1nc(-c2ccccc2)c2c(c1=O)CCCC2 (stereo unspecified),inactive: 6.56%,
Cc1ccc2oc(C(=O)Nc3ccc(S(=O)(=O)Nc4ncccn4)cc3)cc(=O)c2c1,inactive: 7.07%,
Cc1ccc(-c2cn3nc(N4CCC(C(=O)Nc5ccccc5C)CC4)sc3n2)cc1,inactive: 0.0008%,
CCOc1ccccc1CNC(=O)C1CCN(Cc2cc3ccccc3n2Cc2ccccc2)CC1,inactive: 8.72%,

SMILES,"activity change, negative = inhibition",outcome
Cn1c2ccccc2c2c(C(=O)N3CCN(c4cccc(C(F)(F)F)c4)CC3)cn(C3CCCCC3)c(=O)c21,inactive: -5.58%,
Cc1cccc(Cn2c(SCc3ccc(C(=O)NCc4ccccc4F)cc3)nc3cccnc32)c1,inactive: 5.38%,
Cc1ccc(-n2ccnc(NCc3cccs3)c2=O)cc1C,inactive: 3.18%,
Cc1cc(C)c2oc(C(=O)Nc3nc4ccc(Cl)cc4s3)cc(=O)c2c1,inactive: 0.641%,
COc1cccc(NS(=O)(=O)c2ccc3[nH]cc(C(=O)NCCc4ccc(C)cc4)c(=O)c3c2)c1,,inactive
CN1C(C(=O)NC(C)(C)C)=CC(c2ccc3c(c2)OCO3)=NS1(=O)=O,inactive: 11.2%,
CCCS(=O)(=O)c1nc(S(=O)(=O)c2ccc(C)cc2)c(NC(C)c2ccccc2)s1 (stereo unspecified),inactive: -8.31%,
O=C(COCc1cc(-c2ccc3c(c2)OCO3)on1)N1CCN(c2cccc(C(F)(F)F)c2)CC1,inactive: -2.76%,
COc1cc2nc(NC(=O)c3ccc(S(=O)(=O)N4CCCC4)cc3)sc2cc1OC,inactive: 7.07%,
COc1ccc2oc(=O)c(-c3nc4ccc(C)cc4[nH]3)cc2c1,inactive: 6.41%,
CCC(=O)N1CCc2cc(S(=O)(=O)NCCC(=O)Nc3cccc(SC)c3)ccc21,inactive: -10.3%,
O=C(COc1ccccc1F)Nc1ccc2nc(SCc3ccccc3)sc2c1,,inactive
CCOC(=O)c1cc(-c2ccc(F)cc2)n(CCC(=O)NCc2ccc(C)cc2)c1C,inactive: 2.56%,
Cc1ccc(NC(=O)CN2CCN(C3CCCCC3)C(=O)C2=O)cc1C,inactive: -4.12%,
CCCN1C(C(=O)c2ccccc2)=C(OC(=O)C(C)(C)C)c2ccccc2S1(=O)=O,inactive: -0.939%,
Cc1ccc2c(c1)sc1nc(=O)n(-c3cccc(Cl)c3)c(=O)n12,inactive: 0.841%,
COc1ccccc1NC(=O)C1=C(C)Nc2nc(SCc3ccccc3Cl)nn2C1c1cccnc1 (stereo unspecified),inactive: 37.1%,
CN(C(=O)NCc1noc2ccccc12)c1cccc(Cl)c1,inactive: 6.4%,
COc1ccc(CN2C(=O)c3ccccc3C2C(=O)NC2CCCCCC2)c(OC)c1 (stereo unspecified),inactive: 1.12%,
O=C(Cn1ncc2c3ccccc3n(Cc3cccc(Cl)c3)c2c1=O)N1CCCCC1,inactive: -0.738%,
Cc1ccc(-n2c(=O)[nH]c3sc4c(c3c2=O)CCNC4)cc1C,inactive: -15.1%,
Cc1cc(Cl)ccc1NS(=O)(=O)c1cc2[nH]c(=O)c(=O)[nH]c2cc1C,inactive: -0.794%,
CCCCc1nn2c(C)c(-c3ccc(OCC)cc3)nc2s1,,inactive
CCOC(=O)C1CCN(C(=O)Cn2nc(CC)n3c(cc4occc43)c2=O)CC1,,inactive

SMILES,"activity change, negative = inhibition",outcome
Cc1ccc(NC(c2cccc(Cl)c2)c2nnc(-c3ccccc3)o2)cc1F (stereo unspecified),inactive: -25.2%,
COC(=O)c1cc2oc(C)cc2n1Cc1ccc(Cl)cc1,,inactive
N#Cc1ccc(NC(=O)COCc2cc(-c3ccc(F)cc3)on2)cc1,inactive: 9.23%,
Cc1ccc(CN2C(=O)N(c3ccc(C)c(Cl)c3)S(=O)(=O)c3ccccc32)cc1,inactive: -0.925%,
Cc1ccc(NC(=O)C2CCN(S(=O)(=O)c3c(C)noc3C)CC2)cc1C,inactive: 9.62%,
COc1cccc(NC(=O)CN2C(=O)C3(SCC(=O)N3c3cc(C)cc(C)c3)c3ccccc32)c1 (stereo unspecified),,inactive
COc1ccc(CNC(=O)CCS(=O)(=O)c2ccc3c(c2)CC(C)N3C(=O)C2CC2)cc1 (stereo unspecified),,inactive
O=C(CSc1nccn1C1CCCC1)Nc1ccccc1,inactive: -8.71%,
CCOC(=O)CSc1nc2ccccc2n2c(C)nnc12,inactive: 7.24%,
CCN(CC)C(=O)C1CCN(C(=O)c2cnn(-c3ccccc3)c2-n2cccc2)CC1,,inactive
O=C(Nc1ccc(Cl)cc1C(F)(F)F)c1cc(S(=O)(=O)NCc2ccccc2)ccc1F,inactive: 3.55%,
CCc1ccc(CNC(=O)c2ccc(CS(=O)(=O)Cc3ccccc3C)o2)cc1,,inactive
CCOC(=O)C1CCN(C(=O)c2nn(-c3ccc(C)cc3)c(=O)n(C)c2=O)CC1,inactive: 4.55%,
COC(=O)c1c(-c2cccs2)csc1NC(=O)COc1ccc(C(C)C)cc1,inactive: 3.07%,
CCOc1ccc(CNC(=O)c2cnc(SC)nc2C)cc1,inactive: 0.921%,
CCC1Oc2ccccc2N(CC(=O)NCc2ccc(C)cc2)C1=O (stereo unspecified),,inactive
Cc1ccccc1OCC(=O)Nc1nnc(S(=O)(=O)N(C)c2ccccc2)s1,,inactive
COc1ccccc1N1CCN(C(=O)c2cc3c(=O)n(Cc4cccnc4)ccc3nc2C)CC1,inactive: 1.06%,
CCOc1ccc(-n2ccnc2SCC(=O)Nc2ccc(OC)cc2OC)cc1,inactive: -7.67%,
Cc1ccc(Cl)cc1N1CCN(C(=O)c2cn(C)c3ccc(S(=O)(=O)N4CCCC4)cc3c2=O)CC1,inactive: 1.13%,
CC(C)CC(=O)N(Cc1ccccc1)S(=O)(=O)c1ccc2c(c1)oc(=O)n2C,inactive: 0.843%,
CCOc1ccc(C(=O)OCc2cc(=O)n3nc(C(C)C)sc3n2)cc1,,inactive
CC(=O)c1ccc(NC(=O)COc2ccccc2-c2nc(C)no2)cc1,inactive: -8.29%,
Cc1cccc(CCNC(=O)c2nc(-c3ccc(Cl)cc3)n3c2CCCCC3)c1,,inactive

SMILES,"activity change, negative = inhibition",outcome
COc1ccc(Br)cc1CNC(=O)c1cc2c(=O)n(C)c3ccccc3c2s1,inactive: 4.87%,
CCN1CCN(c2ncc3c(n2)CCN(Cc2ccc(C)s2)C3)CC1,inactive: -1.17%,
Cc1ccc(-c2nc(CS(=O)CC(=O)O)c(C)o2)cc1 (stereo unspecified),,inactive
Cc1ccc(S(=O)(=O)c2cn(CC(=O)Nc3ccccc3)c3cc4c(cc3c2=O)OCO4)cc1,,inactive
CC(=O)c1cc(-c2ccccc2)n(CC(=O)Nc2ccc(C)cc2C)c1C,inactive: 6.06%,
Nc1nonc1-c1nc2ccccc2n1CC(=O)Nc1ccc(F)cc1,inactive: -3.34%,
Cc1cccc(N2CCN(C(=O)c3ccc4c(c3)CCN4S(=O)(=O)c3ccccc3)CC2)c1C,inactive: -5.96%,
CCOc1ccccc1NC(=O)NC(CC)c1c(-n2cccc2)sc2c1CCN(C)C2 (stereo unspecified),inactive: -0.256%,
CCc1ccc(S(=O)(=O)c2nnn3c2nc(NCCC(C)C)c2cc(Cl)ccc23)cc1,inactive: 23.8%,
CCOC(=O)c1cc(OC(=O)c2cc(Cl)ccc2OC)n(-c2ccccc2)n1,,inactive
CCc1ccccc1NC(=O)CSc1nccn1C,inactive: -1.89%,
Cn1c(SCC(=O)Nc2ccccc2F)nc2c([nH]c3ccccc32)c1=O,inactive: -7.28%,
CCOc1ccc(NS(=O)(=O)c2ccc3[nH]cc(C(=O)NCCc4ccccc4)c(=O)c3c2)cc1,inactive: 7.43%,
COc1ccccc1Nc1ncnc2c1nc1n2CCCCC1,,inactive
Cn1nc(C(=O)Nc2cccc(C(F)(F)F)c2)c2c1-c1ccccc1S(=O)(=O)C2,inactive: 3.42%,
O=C(COc1ccc(Cl)cc1Cl)Nc1ccc(C(=O)OC2CCCCC2)cc1,,inactive
CCCN(CCC)S(=O)(=O)c1ccc(C(=O)N2CCn3c4c(c5cc(C)ccc53)CCCC42)cc1 (stereo unspecified),inactive: 4.96%,
COc1ccc2c(c1)c(CC(=O)Nc1cc(C)c(OC)c(C)c1)c(C)n2C(=O)c1ccc(Cl)cc1,,inactive
CC(=O)c1ccc(OC(=O)c2c(-c3ccccc3Cl)noc2C)cc1,inactive: -3.36%,
O=C(Nc1cc(-c2nc3ccccc3o2)ccc1Cl)c1cc([N+](=O)[O-])ccc1N1CCOCC1,,inactive
COc1cccc(CNC(=O)C2CCN(c3ncnc4c3nc3n4CCCCC3)CC2)c1,inactive: 4.8%,
Cc1cc(-c2ccc(C)c(S(=O)(=O)NCCc3ccccc3)c2)on1,,inactive
Cc1[nH]c2ccccc2c1SCCNC(=O)c1ccc(F)cc1,inactive: 4.9%,
CC(C)c1ccc(NC(=O)CSC2=Nc3ccccc3C3=NC(CC(=O)NCCc4ccccc4)C(=O)N23)cc1 (stereo unspecified),,inactive

# Reference: PubChem BioAssay AID1963576 (National Center for Advancing Translational Sciences (NCATS), 2024)
